In all, about 150,000 compounds went through this assay and about 6,500 (4.3%) were called active. The shares of active, inactive and inconclusive entries below differ from those in the screen. The call rests on the fitted dose curve; in most records, active means well fitted inhibition curve with a large enough effect (not every such curve was filed as active); inconclusive means small, poorly fitted or top-dose-only effect, or another doubt; inactive means no such curve, though single readings can be large or run the other way. Where the call is inconclusive, the potency comes from a doubtful curve fit.
What follows are molecules tested against 15-hydroxyprostaglandin dehydrogenase [NAD(+)] (Homo sapiens) (UniProt P15428) (assay: qHTS Assay for Inhibitors of HPGD (15-Hydroxyprostaglandin Dehydrogenase)). Conditions: purified HPGD, NADH fluorescence kinetic, PGE2 substrate; activity change, negative = inhibition: hits give low values.
Sequence of UniProt P15428 (P15428 whole entry, looked up): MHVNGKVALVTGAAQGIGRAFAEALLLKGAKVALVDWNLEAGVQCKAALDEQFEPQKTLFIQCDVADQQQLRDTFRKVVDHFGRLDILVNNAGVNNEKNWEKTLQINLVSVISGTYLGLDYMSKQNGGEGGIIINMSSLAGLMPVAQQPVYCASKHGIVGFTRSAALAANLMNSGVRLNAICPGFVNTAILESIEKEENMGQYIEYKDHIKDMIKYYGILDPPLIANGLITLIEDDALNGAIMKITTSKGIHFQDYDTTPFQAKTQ
Outline: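 20 nM HPGD preincubated 15 min at room temperature with compound in 50 mM Tris-HCl pH 8, 0.01% Tween 20. Started with 1 mM NAD+ and 30 uM prostaglandin E2; NADH fluorescence (360/450 nm) read 5 times over 30-s intervals, last minus first.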
On the % scale 0 is the no-effect control and ±100 the full control effect; potency means the concentration at half of the fitted maximal effect; tags describe the fitted curve by direction and shape.

Activity change, negative = inhibition, inactive:
CC(C)c1ccc(NCCC(=O)c2cccs2)cc1 -11.5%
CCCCc1ccc(NC(=O)OC)cc1 -17.4%
Cc1occc1C(=O)NCc1ccccc1 -21.1%
C=CCn1c(SCC(=O)Nc2ncc(Cc3cc(C(F)(F)F)ccc3Cl)s2)nnc1-c1ccncc1 -10.4%
Cc1ccc(C2(O)CN(c3ccccc3C)C3=[N+]2CCS3)cc1 (configuration not stated) -1.26%
CCONC(=NC)c1nonc1N -2.42%
O=C1CCCC/C1=C\Nc1ccc(O)cc1 -23.2%
Cc1cccc([N+](=O)[O-])c1NC(=O)CN(Cc1ccccc1)Cc1ccccc1 -5.08%
Cc1cc(SC(C)C(=O)Nc2ncc(Cl)cc2Cl)nc2ccccc12 (configuration not stated) -9.59%
CCOC(=O)c1c(N2C(=O)C3CC(C)=C(C)CC3C2=O)sc(C)c1C (configuration not stated) 1.59%
CC(C)(C)C(=O)NC(=S)Nc1cc(C(F)(F)F)ccc1N1CCOCC1 -6.99%
COC(=O)c1ccccc1S(=O)(=O)N1CCc2nc(-c3ccc(OC)cc3C)c3c(c2C1)CO[C@@H](c1ccccc1)C3 -1.86%
Cn1c(=S)c2[nH]c(SCCN3C(=O)c4ccccc4C3=O)nc2n(C)c1=O -12.5%
Cn1c(=O)[nH]c(=O)c2c1nc(CN1CCN(c3ccccc3F)CC1)n2CCCc1ccccc1 7.43%
COC(=O)c1ccc(NC(=O)C2CCCN2S(=O)(=O)c2ccc(OC)cc2)cc1 (configuration not stated) -3.87%
CCc1nnc(NC(=O)C2CC(=O)N(c3ccc4c(c3)OCCO4)C2)s1 (configuration not stated) -28.3%
CC(CC(=O)Nc1cc([N+](=O)[O-])ccc1Cl)c1ccccc1 (configuration not stated) -10.8%

Potency, active:
O=S1(=O)c2ccccc2N=NN1Cc1ccc(Cl)c(Cl)c1 5.62 µM
O=C(CCC1CCCC1)NC1CCCCC1 15.8 µM
COc1cccc(OCCCOc2ccc([N+](=O)[O-])cc2Cl)c1 17.8 µM
COc1ccc(C(=O)/C=C2\NCC3c4ccccc4CCN3C2=O)cc1 (configuration not stated) 28.2 µM
COc1ccccc1-c1cc(C(F)(F)F)nc(S(C)(=O)=O)n1 25.1 µM
O=C(c1cc(-c2ccc(Cl)c(Cl)c2)on1)N1CCCCC1 2.82 µM
CCSC1=C(C#N)C(c2ccc3c(c2)OCO3)C2=C(CCCC2=O)N1 (configuration not stated) 14.1 µM
O=C(CSc1ccc2c(c1)OCCO2)NCc1ccco1 25.1 µM
CCN(CC)S(=O)(=O)c1ccc2c(c1)nc(SCC(N)=O)n2-c1ccc(OC)cc1 22.4 µM
O=C(OCn1nnc2ccccc2c1=O)c1ccc2ncsc2c1 25.1 µM
CN1CCN(C(=O)c2ccc3c(c2)NC(=O)C(C)(C)O3)CC1 8.91 µM
CCCCCCCC#Cc1ccccc1/C=N/S(=O)c1ccc(C)cc1 (configuration not stated) 12.6 µM
COc1ccc(-c2cc(C(=O)N3CCc4ccccc4C3)no2)cc1OC 11.2 µM
CN(c1ccc(OCc2nnc(-c3ccccc3)o2)cc1)S(=O)(=O)c1ccccc1 7.94 µM

Potency, inconclusive:
Cc1cccc(S(=O)(=O)c2c(N)n(/N=C/c3ccccc3)c3nc4ccccc4nc23)c1 25.1 µM [inhibitor, partial curve]
Cc1nn(Cc2ccccc2Cl)c2sc(C(=O)Nc3ccccc3N3CCOCC3)cc12 39.8 µM [inhibitor, single point]
CC(=O)N1CCc2cc3nc(C)cc(C)c3cc21 28.2 µM [inhibitor, partial curve]
Cc1cccc(-n2ncc3c(NCc4ccccc4)ncnc32)c1 15.8 µM [inhibitor, partial curve]
CCCOc1ccc(C2c3c(oc4cc(C)c(C)cc4c3=O)C(=O)N2CCCN2CCOCC2)cc1 (configuration not stated) 39.8 µM [inhibitor, single point]
Cc1cccc(C)c1NC(=O)CCS(=O)(=O)c1cccc2nsnc12 31.6 µM [inhibitor, single point]
O=C(Nc1ccc2oc(-c3ccccc3F)nc2c1)c1ccc2c(c1)OCCO2 28.2 µM [inhibitor, partial curve]
O=C(NCCCO)c1ccc2[nH]c3ccccc3c2c1 31.6 µM [inhibitor, partial curve]
Cc1ccc(C(=O)c2c(NC(=O)CSc3nnc(N)s3)sc3c2CCCC3)cc1 17.8 µM [inhibitor, partial curve, poor fit]
O=C(CCc1ccccc1)NCc1ccccn1 35.5 µM [inhibitor, partial curve]
O=C1c2cccc3cccc(c23)N1Cc1ccc(F)cc1 28.2 µM [inhibitor, partial curve]
NC(=O)C1(N2CCCCC2)CCN(C(=O)c2cccn3c(=O)c4cc(Cl)ccc4nc23)CC1 25.1 µM [inhibitor, partial curve]
COC(=O)Nc1nnc(-c2ccccc2Cl)s1 31.6 µM [inhibitor, single point]
CCOCCCn1c(=N)c(C(N)=S)cc2c(=O)n3cccc(C)c3nc21 25.1 µM [inhibitor, partial curve]
O=S(=O)(c1ccccc1)n1ccc2ccccc21 8.91 µM [inhibitor, full curve, poor fit]
CCOC(=O)CSc1nnc(-c2ccc(S(=O)(=O)N3CCOCC3)cc2)n1-c1ccccc1 31.6 µM [inhibitor, partial curve]
CCOC(=O)c1cc2c(=O)n3ccccc3nc2n(CC2CCCO2)c1=NC(C)=O (configuration not stated) 3.16 µM [inhibitor, full curve]
O=C(Nc1nc(-c2ccccc2)cs1)c1cccc(S(=O)(=O)N2CCN(Cc3ccccc3)CC2)c1 31.6 µM [inhibitor, partial curve]
O=C1C=CC(=Nc2cccc3c(N=C4C=CC(=O)O4)cccc23)O1 3.16 µM [inhibitor, single point]
COc1cc(NC(=S)NC(=O)CC(C)C)ccc1NC(=O)c1cc2ccccc2o1 25.1 µM [inhibitor, partial curve]
Cn1cc(C(=O)NCc2ccccc2F)cn1 8.91 µM [inhibitor, full curve, poor fit]
C[C@@H](C(=O)NCc1cccc2ccccc12)[C@H]1C[C@]1(C)[C@H](NC(=O)OCc1ccccc1)c1ccccc1 8.91 µM [inhibitor, partial curve]
CCCC(=O)Nc1ccc2oc(-c3ccncc3)nc2c1 28.2 µM [inhibitor, partial curve]
CC1CCCCN1c1nnc(N)s1 (configuration not stated) 25.1 µM [inhibitor, partial curve]
Cc1nc(NC(=O)c2ccccc2)sc1-c1csc(NCc2ccccc2)n1 35.5 µM [inhibitor, single point]
CCOC(=O)c1c(-c2ccc(C)o2)csc1NC(=O)CN1CCOCC1 15.8 µM [inhibitor, partial curve]
COc1ccc2oc(=O)c(-c3ccccc3C(=O)N3CCOCC3)cc2c1 28.2 µM [inhibitor, partial curve]
O=C(O)C1CCCN1S(=O)(=O)c1ccc2ccccc2c1 (configuration not stated) 35.5 µM [inhibitor, single point]
CCc1cc(-c2n[nH]c(=S)n2-c2ccccc2C)cs1 15.8 µM [inhibitor, partial curve]
COC(=O)c1ccc2c(c1)C(C)(C)C(/C=C/c1ccccc1O)=[N+]2C 3.98 µM [inhibitor, full curve]
Cc1ccc2nc(-c3ccc(SCC(=O)O)nc3)[nH]c2c1 28.2 µM [inhibitor, partial curve]
O=C(/C=C/c1ccc2c(c1)OCO2)c1ccco1 39.8 µM [inhibitor, partial curve, poor fit]
O=C(CSc1ccc(-c2nc3ccccc3[nH]2)cn1)Nc1ccc2c(c1)OCCO2 31.6 µM [inhibitor, partial curve]
CC1(C)CC(=O)C2=C(C1)Nc1cc3c(cc1C2c1ccc2c(c1)OCO2)OCO3 (configuration not stated) 20 µM [inhibitor, partial curve]
C=CCNc1oc(-c2cccc3ccccc23)nc1C#N 28.2 µM [inhibitor, partial curve]
CCC(C)n1c(-c2cccs2)nc2nc3ccccc3nc21 (configuration not stated) 28.2 µM [inhibitor, partial curve]
CCNC(=S)NNC(=O)c1cc(-c2ccc(OCC)cc2)nc2ccccc12 4.47 µM [inhibitor, full curve]
c1ccc(-c2nc3nc4ccccc4nc3n2Cc2ccco2)cc1 35.5 µM [inhibitor, partial curve]
Cc1sc(-n2c(C)cc(/C=C3\SC(=S)NC3=O)c2C)c(C#N)c1C 8.91 µM [inhibitor, partial curve]
O=C(COC(=O)c1cccs1)NCc1ccccc1 22.4 µM [inhibitor, partial curve]
CC(=O)Nc1nc2n(n1)C(c1ccccc1)C=C(c1ccccc1)N2 (configuration not stated) 28.2 µM [inhibitor, partial curve]
